Source: PubChem BioAssay AID488969 (Vanderbilt High Throughput Screening Facility, 2010)
Over roughly 110,000 compounds, “z-score” has its median near -0.1; the highest 2% begin near 2. Some of the results follow. The source made the active and inactive calls.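 How the source made its calls: active means z-score in the third read window above 3 or below -3; inactive means the rest.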

The compounds below were run against Metabotropic glutamate receptor 8 (Rattus norvegicus) (UniProt P70579) (assay: mGluR8 Gi/Go-coupled signaling modulation – cell-based, rat, thallium flux, HTS, primary screen (AID 488969)). Conditions: HEK293 rat mGluR8, GIRK (G protein-gated inwardly rectifying potassium channel) thallium flux, FluoZin2; at 10 µM; stronger effect = higher value; submaximal glutamate (EC20) added with thallium.
UniProt P70579, sequence (P70579 whole entry, looked up): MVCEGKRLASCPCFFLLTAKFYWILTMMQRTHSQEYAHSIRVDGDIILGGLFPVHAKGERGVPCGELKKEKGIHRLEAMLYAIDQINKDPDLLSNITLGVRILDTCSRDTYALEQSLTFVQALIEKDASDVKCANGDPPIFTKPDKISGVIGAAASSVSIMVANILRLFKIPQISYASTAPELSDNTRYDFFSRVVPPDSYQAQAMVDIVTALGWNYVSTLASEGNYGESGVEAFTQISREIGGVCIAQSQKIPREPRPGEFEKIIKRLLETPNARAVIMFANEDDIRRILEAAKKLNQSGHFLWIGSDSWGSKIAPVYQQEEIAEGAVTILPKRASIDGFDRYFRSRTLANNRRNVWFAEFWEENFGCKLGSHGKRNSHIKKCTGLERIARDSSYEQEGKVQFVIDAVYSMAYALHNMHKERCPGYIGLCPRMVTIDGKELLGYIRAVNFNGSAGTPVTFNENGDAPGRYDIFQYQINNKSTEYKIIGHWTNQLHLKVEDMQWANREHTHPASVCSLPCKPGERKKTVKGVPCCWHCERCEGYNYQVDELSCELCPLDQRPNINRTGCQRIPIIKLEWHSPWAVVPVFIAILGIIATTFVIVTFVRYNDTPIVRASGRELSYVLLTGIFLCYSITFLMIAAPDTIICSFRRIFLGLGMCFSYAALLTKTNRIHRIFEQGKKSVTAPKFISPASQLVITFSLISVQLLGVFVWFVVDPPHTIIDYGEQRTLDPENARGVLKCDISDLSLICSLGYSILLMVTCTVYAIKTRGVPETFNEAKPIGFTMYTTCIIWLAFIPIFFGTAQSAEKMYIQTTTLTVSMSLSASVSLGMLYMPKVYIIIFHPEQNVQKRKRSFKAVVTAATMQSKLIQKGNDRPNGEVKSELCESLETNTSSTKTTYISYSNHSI

Structure (SMILES)	z-score
Cc1nc(NS(=O)(=O)c2ccccc2)sc1NC(=O)OCCN(C)C	0.0129
CCOC(=O)N1CCC(Nc2c(NCCCN(CC)Cc3ccccc3)c(=O)c2=O)CC1	-1.26
Cc1ccccc1Cn1cc(NC(=O)CSc2nc3c(c(C(F)(F)F)n2)CCc2ccccc2-3)cn1	-0.789
Cc1oc(-c2ccccc2Cl)nc1Cn1cccc1C1=NC(c2ccccc2)CO1 (stereo unspecified)	0.899
Cc1ccc(S(=O)(=O)N2CCN(Cc3nc4ccccc4[nH]3)CC2)cc1C	-0.049
CC1(C)OC(=O)C(=CNc2ncccn2)C(=O)O1	-0.0143
Cc1cccc(C(=O)n2c(=S)nc3ccccn32)c1	-0.0542
Cc1cccc(-n2ncc3c(NCCCn4ccnc4)ncnc32)c1	-0.339
Cc1ccc(NC(=O)CSc2ccc3nnc(CCNC(=O)c4ccccc4)n3n2)c(C)c1	0.618
COc1ccccc1NC(CC(=O)c1ccccc1)C(=O)OCC(=O)c1ccc(C)c(C)c1 (stereo unspecified)	0.228
N#CC(c1ccccc1)N(CCCCl)C(=O)c1ccccc1 (stereo unspecified)	-0.217
O=C(Nc1ccc(N2CCN(C(=O)c3ccccc3)CC2)c(Cl)c1)c1ccco1	-0.594
O=C(O)CCS(=O)(=O)Cc1ccccc1Cl	-0.00968
CCOc1ccc(C(C(=O)NC2CCCCC2)N(C(=O)c2ccco2)c2ccc(-n3cnnn3)c(C)c2)cc1 (stereo unspecified)	0.32
Nc1nc2ccccc2n1/N=C/c1ccc(-c2ccccc2)o1	-0.307
O=C(CN(Cc1ccco1)S(=O)(=O)c1ccccc1)N/N=C/c1cccc(O)c1	-0.233
O=C(CCNS(=O)(=O)c1ccc2c(c1)CCC(=O)N2)NCc1ccc2c(c1)OCO2	0.501
C=CCOc1c2ccc(C(=O)NCc3ccc(C)cc3)cc2nn1C	-0.111
COc1ccc(Nc2nc(N)nc(CSC(=S)N3CCN(c4ccccc4)CC3)n2)cc1	-0.0024
N/C(=N\c1nc(CSc2ccc(Cl)cc2)cc(=O)[nH]1)Nc1cccc2ccccc12	-0.0689
Cc1nc2nc[nH]n2c(=O)c1NC(=O)CC12CC3CC(CC(C3)C1)C2	-0.23
COC(=O)c1ccc(Cn2nc(C)c(Cl)c2C)o1	0.241

Structure (SMILES)	z-score
COc1ccc(OCC(=O)NNC(=O)Cc2coc3cc(OC)ccc23)cc1	0.0448
COc1ccc2c(c1)CC/C(=C\c1ccc(OC)c(Cn3nc(C)cc3C)c1)C2=O	0.459
CCOC(=O)c1sc(NC(=O)CSc2nc(-c3ccco3)cc(C(F)(F)F)n2)c(C(=O)OC)c1C	-0.0236
Cc1nn(-c2ccc(F)cc2)c(Cl)c1/C=C(\CCC(=O)O)c1nc2ccccc2s1	-0.979
COc1cc(C2c3c(oc4ccccc4c3=O)C(=O)N2Cc2ccco2)ccc1O (stereo unspecified)	-0.106
CN(C)c1ccc(/C(=N\O)c2ccccc2)cc1	0.0213
CCOC(=O)C1C2C=CC3(CN(Cc4ccco4)C(=O)C13)O2 (stereo unspecified)	-0.327
COc1cccc(NC(=O)CSc2nnc(Cn3nnc4ccccc43)n2C)c1	0.0801
CCOC(=O)c1c(-c2ccc(C)c(C)c2)csc1NC(=O)C1CC=CCC1C(=O)O (stereo unspecified)	-0.108
COc1cc(CCNC(=O)c2cnn3ccccc23)cc(OC)c1OC	-0.515
CCOC(=O)C1CCN(c2c(-c3ccccc3)c3cc(Cl)ccc3[nH]c2=O)CC1	-0.019
O=C(Cn1c(C(F)(F)F)nc2ccccc21)Oc1cccc(C(F)(F)F)c1	-0.288
CN(C)S(=O)(=O)c1cc(NC(=O)COC(=O)C2CSC3(C)CCC(=O)N23)ccc1Cl (stereo unspecified)	0.312
Cc1ccc(Sc2cc(C(F)(F)F)nc(N(C)C)n2)cc1	-0.334
O=C(CCN1CCC(c2ccccc2)C1)c1cccs1 (stereo unspecified)	-0.0676
CCOC(=O)C1=C(N)OC2=C(C(=O)CCC2)C1c1ccccc1OCC (stereo unspecified)	-0.846
O=C(CCCOc1ccccc1)Nc1cccnc1	-0.0925
CCN(CC)CCCNC(=O)CCc1ccccc1	-0.321
CCN(CC)S(=O)(=O)c1ccc(OC)c(NC(=S)Nc2cccc(C)c2C)c1	-0.257
COc1ccc(CN2CCCCC2c2cccnc2)c(OC)c1C (stereo unspecified)	0.0993
Cc1cc(=O)oc2cc(OCC(=O)Nc3nnc(C(C)C)s3)ccc12	0.259
O=C1OC(N2CCN(C(=O)C3CCCO3)CC2)c2ccccc21 (stereo unspecified)	0.0461

Structure (SMILES)	z-score
O=C(COc1ccc2ccccc2c1)NC1=NCCS1	-0.121
CC(C)C(OC(=O)c1ccco1)C(=O)NCc1cccs1 (stereo unspecified)	-0.943
Cc1ccccc1C(=O)NNC(=O)CCC(=O)Nc1cccc(Cl)c1C	-0.34
Cc1occc1C(=O)NCc1ccccn1	0.0437
CC12CN3CCN(CC(C3)C1(O)CN1CCOCC1)C2 (stereo unspecified)	-1.33
C(=N\Nc1nc2ccccc2[nH]1)/c1cccs1	-0.236
O=C(CN1CCN(S(=O)(=O)c2ccc(Br)cc2)CC1)N/N=C/c1ccco1	-0.202
COc1ccc(C(c2nnnn2C2CCCC2)N2CCC(C)CC2)c(OC)c1 (stereo unspecified)	-0.0441
CC(C)[C@H](NC(=O)c1ccc(Cl)c([N+](=O)[O-])c1)C(=O)NCc1ccc(Cl)cc1Cl	-0.0903
Cc1cc(NS(=O)(=O)c2ccc(C3CCCCC3)cc2)no1	0.245
Cc1cc(NC(=O)CSc2nnc(-c3ccoc3C)o2)no1	1.14
CCC(NC(=S)Nc1ccccc1)C(=O)O (stereo unspecified)	-0.128
Cc1ccc(C(=O)Cn2nnc3ccccc32)cc1	-0.246
CCC(=O)NC(c1ccc([N+](=O)[O-])cc1)c1c(O)ccc2ccccc12 (stereo unspecified)	0.825
CCOC(=O)C1=C(C)Nc2nnnn2C1c1ccccc1Cl (stereo unspecified)	active: -3.29
CC(OC(=O)c1cc2sccc2n1C)C(=O)NCc1ccco1 (stereo unspecified)	-0.0576
CCOC(=O)c1c(NC(=S)Nc2ccccc2)sc2c1CCCCC2	active: 3.94
COc1ccc(S(=O)(=O)n2nc(OC(=O)c3ccccc3Br)cc2N)cc1	-0.341
O=C(CCCSc1nc2sc3c(c2c(=O)[nH]1)CCC3)NCCO	-0.0186
Cc1ccc2c(Cl)cc(Cl)c(OCc3c(C)noc3C)c2n1	-0.811
Cc1ccc2[nH]c(=O)c(CN(Cc3ccco3)S(=O)(=O)c3c(C)ccc4nsnc34)cc2c1	-0.286
CC(C)CC(=O)NC(=S)Nc1ccc(S(=O)(=O)NC(C)(C)C)cc1	-0.107

Structure (SMILES)	z-score
CC1=CC(C)(C)Nc2ccc(OC(=O)CN3C(=O)c4ccccc4C3=O)cc21	-0.184
Cc1cc(C)c(S(C)(=O)=O)c(Oc2ccc(C(C)(C)C)cc2)n1	-0.314
Cc1cc(NS(=O)(=O)c2ccc(NC(NC(=O)C(C(F)(F)F)C(F)(F)F)(C(F)(F)F)C(F)(F)F)cc2)no1	-0.151
O=C(C1CCN(S(=O)(=O)c2cccnc2)CC1)N1CCN(c2ccccc2Cl)CC1	-0.0943
Cc1c(N(C(=O)Nc2ccccc2)C2=NCC(C)S2)c(=O)n(-c2ccccc2)n1C (stereo unspecified)	-0.23
O=C(COC(=O)c1n[nH]c2ccccc12)NC(=O)NCc1ccco1	-0.182
COc1ccccc1CNC(=O)c1ccc(NS(C)(=O)=O)cc1	-0.43
O=C(N/N=C/c1cccc(F)c1)c1csc2c1CCCC2	-0.028
CC(=NC1CCCCC1)C1=C(O)c2ccccc2C1=O	-0.199
CC1CC(C)CN(C/C=C/c2ccccc2[N+](=O)[O-])C1 (stereo unspecified)	0.224
CN(C(=O)c1ccc2c(c1)OCO2)C1(C(=O)NC2CCCCC2)CCCCC1	-0.211
Cc1cc(C(=O)N/N=C/C=C/c2ccc3c(c2)OCO3)n[nH]1	-0.346
CCc1cccc(NC(=O)CCSCCC(=O)Nc2cccc(CC)c2)c1	active: 3.02
O=C(Nc1cc(Sc2nc3ccccc3s2)cc([N+](=O)[O-])c1)c1ccccc1	-0.37
CC(=O)c1ccc(S(=O)(=O)NCCCC(=O)NCCc2ccccn2)cc1	-0.0522
CCN(CC)NC(=S)Nc1ccccc1	0.0841
O=C(Cn1cnc2c(nnn2Cc2ccc(F)cc2)c1=O)N1CCCc2ccccc21	-0.622
CC(C)CNS(=O)(=O)c1ccc(S(=O)(=O)NC2CCOC(C)(C)C2)cc1 (stereo unspecified)	-0.235
COc1cc(C(=O)Nc2ccc(-c3nnc(-c4ccco4)o3)cc2)cc(OC)c1OC	0.0264
CCOc1ccc2nc(SCc3ccc(F)cc3)sc2c1	-0.288
COc1ccccc1C(=O)Nc1ccc(S(=O)(=O)Nc2cc(C)on2)cc1	-0.339
CC(C)(CO)N=Cc1c(O)[nH]c2ccccc12	-0.658

Structure (SMILES)	z-score
CCSc1nc2c(c(=O)[nH]1)C(c1ccncc1)C(C(=O)OC(C)C)=C(C)N2 (stereo unspecified)	-1.21
Cc1ccc(C(=O)N/C(=C\c2ccc(C(C)C)cc2)C(=O)NCCCN2CCOCC2)cc1	-0.299
O=C(CCCn1c(=O)[nH]c2cc(Cl)ccc2c1=O)NCCC1=CCCCC1	0.71
NC(=O)c1oc2ccccc2c1NC(=O)c1nc2ccccc2s1	-0.927
CCCCSc1nc(O)c(C2OC(=O)c3c2ccc(OC)c3OC)c(=O)n1-c1ccccc1 (stereo unspecified)	-1.03
O=C(CSc1n[nH]c(-c2cccs2)n1)NCc1ccc2c(c1)OCO2	-0.611
Cc1ccc(C(=O)NCCc2csc(-c3cccnc3)n2)cc1	1.03
Cn1c(=O)c2cc(S(=O)(=O)NC(C(=O)Nc3cccc(F)c3)c3ccccc3)ccc2n(C)c1=O (stereo unspecified)	0.186
COc1ccc(C2=NOC3(CC(=O)N(c4ccc(Cl)cc4)C3=O)C2)c(OC)c1 (stereo unspecified)	0.285
CC(C)CCn1cnc2c(cnn2-c2ccc(F)cc2)c1=O	-0.575
Cc1cc(C)cc(OCC(=O)OCC(=O)c2ccc3c(c2)NC(=O)CO3)c1	-0.225
Cc1noc(C)c1S(=O)(=O)N1CCCC(C(=O)N2CCC(C)CC2)C1 (stereo unspecified)	1.01
COc1ccc(N(CC(=O)Nc2ccccc2C(=O)NCCc2ccccc2)S(C)(=O)=O)cc1OC	-0.431
Cc1ccc(-c2noc(-c3ccccc3C(=O)NCC3CCCO3)n2)cc1 (stereo unspecified)	-0.709
CCOc1ccc(C(=O)CC(=O)C(=O)NCCc2ccc(OC)c(OC)c2)cc1	-0.0424
c1ccc(Nc2nc(N3CCCCC3)nc(N3CCCCC3)n2)cc1	-0.283
O=C(CSc1nnc2ccccn12)c1ccc2c(c1)OCCO2	0.538
CC(C)NC(=O)c1ccccc1NC(=O)C1COc2ccccc2O1 (stereo unspecified)	-0.252
